The campaign covered roughly 45,000 compounds. About 65 (0.1%) were called active. The call rests on the fitted dose curve; in most records, active means well fitted activation curve with a large enough effect; inconclusive means small, poorly fitted or top-dose-only effect; inactive means no such curve, though single readings can be large or run the other way. Some of the results follow.
target: Galactocerebrosidase (Homo sapiens) (UniProt P54803); test: A Novel Cell-Based Assay to Identify Small Molecules for B -Galactocerebrosidase; conditions: 145M-Twi-hGALC-G270D cells (Twitcher mouse brain line with human GALC G270D), HMU-beta-Gal fluorescence, 48 h; series mostly up to 57.5 µM; activation: at the top concentration; further: 0% is about no effect; nearly all actives have a fitted effect of over 65% in size
UniProt P54803, sequence (P54803 whole entry, looked up): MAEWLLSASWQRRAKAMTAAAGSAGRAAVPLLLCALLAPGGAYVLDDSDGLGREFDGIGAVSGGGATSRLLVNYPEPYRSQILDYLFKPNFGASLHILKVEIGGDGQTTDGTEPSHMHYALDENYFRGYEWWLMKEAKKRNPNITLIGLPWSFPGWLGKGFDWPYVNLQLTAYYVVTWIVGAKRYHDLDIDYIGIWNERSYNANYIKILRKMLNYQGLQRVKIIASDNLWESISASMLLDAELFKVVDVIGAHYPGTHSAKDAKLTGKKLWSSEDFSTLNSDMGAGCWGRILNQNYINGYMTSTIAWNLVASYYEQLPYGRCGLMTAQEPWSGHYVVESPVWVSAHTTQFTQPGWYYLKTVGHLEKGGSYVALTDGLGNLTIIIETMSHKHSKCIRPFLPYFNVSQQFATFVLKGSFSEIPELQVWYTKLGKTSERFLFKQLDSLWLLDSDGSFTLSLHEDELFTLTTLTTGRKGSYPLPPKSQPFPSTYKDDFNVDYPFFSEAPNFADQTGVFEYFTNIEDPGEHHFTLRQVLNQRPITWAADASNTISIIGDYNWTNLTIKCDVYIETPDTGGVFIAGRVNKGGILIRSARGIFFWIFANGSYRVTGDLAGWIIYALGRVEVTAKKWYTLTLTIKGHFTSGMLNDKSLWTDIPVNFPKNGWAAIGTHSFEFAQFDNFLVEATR
In short: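 Fluorogenic HMU-b-Gal hydrolysis (0.1 mM final, pH 5.2 citrate-phosphate with 1 mg/mL sodium taurocholate; carbonate stop buffer) measures mutant GALC activity after compound treatment of live 145M-Twi Twitcher brain cells stably carrying human GALC-G270D, with wild-type GALC line alongside; activation sought.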

activation, inactive:
COc1ccccc1NC(=O)CCNS(=O)(=O)c1ccc2c(c1)CCN2C(=O)C1CC1 -12%
O=c1c(NCCc2ccc(Cl)cc2)nccn1-c1ccccc1 -4.46%
COC(=O)c1ccc(-n2nnc(-c3nsc(NC(=O)c4ccc(Cl)cc4)n3)c2C)cc1 -5.89%
CCCSc1ncc(Cl)c(C(=O)Nc2sc3c(c2C(N)=O)CCCC3)n1 -8.8%
Cc1ccccc1CNC(=O)Cc1csc2ccccc12 -11.1%
O=C(OCC(O)CO)c1ccccc1Nc1ccnc2cc(Cl)ccc12 (stereo unspecified) -16.1%
CCN(CC)C(=O)c1sc2c(c1C)c(=O)n(Cc1ccccc1)c(=O)n2CC(=O)Nc1ccc(OC)cc1 -11.8%
CN(c1ccccc1)S(=O)(=O)c1nnc(NC(=O)c2cccs2)s1 -18%
CCN(Cc1ccccc1)C(=O)CCS(=O)(=O)c1cc(Br)cc2c1N(C(=O)C1CC1)CC2 -14.8%
CCOC(=O)c1c(C)oc2ccc(N(C(=O)c3ccncc3)S(=O)(=O)c3ccc(F)cc3)cc12 -10.5%
COc1ccc(OC)c(CCNC(=O)c2cc3cccc4c3n2CCS4)c1 -13.4%
Cc1ccc(C)c(N2CCN(S(=O)(=O)c3ccc(F)c(C(=O)Nc4ccc(Cl)cc4Cl)c3)CC2)c1 -18%
Cc1cc2n(n1)CCCN2C(=O)Nc1ccc(C)c(Cl)c1 -9.05%
O=C(NCc1cccc(F)c1)C1CCN(c2nn3cc(-c4ccc(F)cc4)nc3s2)CC1 9.97%
N#Cc1ccccc1Cn1c(=O)n(-c2ccccc2)c(=O)c2c3c(sc21)CCC3 -16.1%
CCc1ccc(NC(=O)Cn2nnc(C(=O)NCCc3ccccc3)c2N)cc1 -16.4%
CCOc1ccccc1NC(=O)Cn1c(=O)n(CCCCC(=O)NCCCOC)c(=O)c2ccccc21 0.184%
c1ccc2[nH]ccc2c1 -11.5%
CCc1ccccc1N(C)C(=O)c1cc2c(Cl)nc3ccc(C)cc3c2s1 -15.1%
Cc1ccc2[nH]c3c(=O)n(CC(=O)NCCCN4CCN(c5ccc(F)cc5)CC4)ncc3c2c1 -18%
Cc1cc(C)cc(N(CC(=O)Nc2ccc(C)cc2Cl)S(=O)(=O)c2c(C)[nH]c(=O)[nH]c2=O)c1 -16.1%
COCCCNC(=O)C1CCN(C(=O)c2ccc(-n3ccc4ccccc43)s2)CC1 -25.7%
Cc1ccccc1CNCCSc1nnnn1C 2.7%
CC1CCN(S(=O)(=O)c2ccc3c(c2)oc(=O)n3CC(=O)N2CCCCC2)CC1 -10.4%
O=C(Nc1ccc(O)c(-c2nc3ccccc3o2)c1)c1ccc(-c2cccc(Cl)c2)o1 -25.1%
Cc1cccc(C)c1NC(=O)c1nc(SC(C)C)ncc1Cl -12.5%
COc1ccc(NC(=O)CCS(=O)(=O)c2cc3c4c(c2)CCN4C(=O)CC3)cc1OC -0.395%
COc1cc2c(N3CCN(C(=O)Nc4ccc(OC(C)C)cc4)CC3)ncnc2cc1OCCCN1CCCCC1 -9.21%
CCC(C(=O)Nc1ccc(F)cc1F)n1nc(-c2ccccc2)c2c(c1=O)CCCC2 (stereo unspecified) -14.4%
Cc1ccccc1Nc1c(-c2ccc(O)cc2)nc2c(C)cccn12 -36.6%
NC(=O)c1cn(Cc2c(F)cccc2F)nn1 -11.6%
COc1cccc(CNC(=O)CSc2nnc(C)c3c(C)n(-c4ccccc4)nc23)c1 -7.67%
O=C(c1cccn1-c1nnc(N2CCCC2)s1)N1CCN(c2ccc(F)cc2)CC1 -16.3%
Cc1cccc(OCC(=O)NCc2ccc3c(c2)CCN3C(=O)c2ccc(Cl)cc2)c1 -6.05%
CCOc1ccc(NC(=O)c2c(NC(=O)c3ccncc3)sc3c2CCC(C(C)(C)C)C3)cc1 (stereo unspecified) -5.87%
COc1ccc(-c2nnc(SCC(=O)Nc3ccc(C)c(Cl)c3)nc2-c2ccc(OC)c(OC)c2)cc1OC -21.8%
O=C(c1ccc(F)cc1)N1CCN(CCc2ccncc2)CC1 11.8%
COc1ccc(NC(=O)c2ccco2)cc1NC(=O)COc1cc(C)ccc1C(C)C -19.6%
CC(=O)N1c2ccccc2CC1C(=O)N1CCN(c2cc(Cl)ccc2C)CC1 (stereo unspecified) -17.4%
COc1ccc(Cl)cc1S(=O)(=O)N1CCC(c2ccncc2)CC1 -13.5%
COc1cccc(/C=C/c2nc3ccccc3c(=O)n2-c2ccc(C)c(C)c2)c1OC -0.582%
Cc1nc(N)c(S(=O)(=O)c2ccccc2)c(Nc2ccc(Br)cc2)n1 -12.1%
O=C(Nc1ccc(F)cc1)Nc1nnc(SCC(=O)N2CCCCC2)s1 -8%
Cc1cccc(CNC(=O)CN2CC(C)Sc3ccccc32)c1 (stereo unspecified) -21.6%
O=C(Cn1cc(SCc2ccc(Cl)cc2)c2ccccc21)N1CCCC1 5.15%
CC(=O)Nc1ccc(NC(=O)CN2C(=O)CCc3cc(S(=O)(=O)N4CCCCC4)ccc32)cc1 -7.17%
COc1ccc(C)cc1NS(=O)(=O)c1cc(Br)cc2c1N(C(C)=O)C(C)C2 (stereo unspecified) -26.6%
Cc1c(C(=O)N(Cc2cccc(Cl)c2)Cc2ccco2)oc2ccccc12 -3.16%
Cc1c(Cl)cccc1-n1nnc(-c2nc(-c3ccc4c(c3)OCO4)no2)c1C -16.2%
COc1cccc(NC2=CC(c3ccc(C(C)C)cc3)N(c3cccc(OC)c3)C2=O)c1 (stereo unspecified) -9.36%
COc1ccc(NC(=O)c2nn(C)c3c2CSc2ccc(C)cc2-3)cc1OC -28.8%
COC(=O)c1sccc1S(=O)(=O)N(CC(=O)Nc1cc(C)cc(C)c1)c1ccc(Cl)cc1 16%
COc1ccc(-n2c(SCC(=O)NCc3ccccc3)nc3ccsc3c2=O)cc1 3.32%
COc1ccc(CNC(=O)CN2C(=O)COc3ccc(S(=O)(=O)N4CCCCCC4)cc32)cc1 -0.164%
COCCOC(=O)Cn1nnc2sc(-c3ccccc3)cc2c1=O -10.5%
CCOC(=O)c1ccc(NC(=O)CC2Nc3cc(C)c(C)cc3NC2=O)cc1 (stereo unspecified) -23.5%
COc1ccc(CNC(=O)c2ccc(CNS(=O)(=O)c3ccc(OC)cc3)cc2)cc1 -14.9%
COCCCNC(=O)c1ccc(Cn2c(=O)c3ccccc3n(Cc3ccc(C)cc3)c2=O)cc1 -14.4%
Cc1nn(S(=O)(=O)c2ccc(C(C)C)cc2)c(C)c1S(=O)(=O)N1CCCCC1 -7.82%
CCOc1ccc(-n2c(=O)c3c4c(sc3n(CC(=O)NCCCOC)c2=O)CCCCC4)cc1 15.7%
CCc1cccc(C)c1NS(=O)(=O)c1ccc2c(c1)NC(=O)C(C)C(=O)N2 (stereo unspecified) -15.6%
CC(=O)N1CCCc2cc(S(=O)(=O)N3CCCC(C(=O)N4CCN(c5ccccc5F)CC4)C3)ccc21 (stereo unspecified) -18.9%
Cc1ccc2c(c1)-c1c(cnn1CC(=O)N1CCN(c3cccc(C(F)(F)F)c3)CC1)CO2 -11.4%
COc1ccc(CC(=O)NCC(c2ccc(N(C)C)cc2)N2CCOCC2)cc1OC (stereo unspecified) -14.5%
CCCCNC(=O)c1cnn2c(C)c(Cc3c(C)cc(C)cc3C)c(C)nc12 -27.5%
Cc1ccccc1OCc1ccc(-c2nc(C#N)c(N3CCCCC3)o2)o1 -7.13%
COc1cc(NC(=O)Cn2c(=O)n(-c3ccccc3)c(=O)c3c4c(sc32)CCCC4)cc(OC)c1 -9.73%
CC(C)COc1ccc(C(=O)Nc2scc(-c3ccc(Br)cc3)c2C(=O)OC(C)C)cc1 -26.2%
CSc1ccc(CNC(=O)c2ccc3c(c2)N(C)C(=O)C2CCCCN32)cc1 (stereo unspecified) -23%
CCOC(=O)c1cc2c(=O)n3ccccc3nc2n(Cc2ccco2)c1=NC(=O)c1ccc(OC)cc1 -4.26%
CCN(CC)c1ccc2cc(-c3nc(-c4ccccc4)no3)c(=O)oc2c1 -1.86%
O=C(NCc1cccc(Cl)c1)C1CCN(c2nn3cc(-c4ccc(F)cc4)nc3s2)CC1 -20.7%
COc1ccc(-c2cn3nc(N4CCCC(C(=O)Nc5cc(Cl)ccc5OC)C4)sc3n2)cc1 (stereo unspecified) -9.57%
Cc1cc(C)c(NC(=O)Cn2nnc(C(=O)NCc3cccs3)c2N)c(C)c1 -12.2%
Cc1ccc(CNC(=O)c2c(-c3ccc(F)cc3F)noc2C)o1 -2.74%
CCOc1ccc(-n2nc(CO)c(C(=O)NCC(c3ccccc3)c3ccccc3)n2)cc1 -10.9%
COc1ccc(C(=O)COC(=O)CCCC(=O)Nc2ccc(C(C)=O)cc2)cc1 -10.8%
COc1ccc(CCN(C)CCCN2CCc3cc(OC)c(OC)cc3CC2=O)cc1OC -15.1%
CNS(=O)(=O)c1cn(CC(=O)N2CCN(c3ccc(Cl)cc3)CC2)cc1S(=O)(=O)NC -9.79%
Cc1nc2cccnc2n1C1CCN(C(=O)Nc2ccccc2C(F)(F)F)CC1 -17.5%
O=c1ccc2cc(S(=O)(=O)NCc3ccc(Cl)cc3)ccc2[nH]1 -16.3%
O=C(NCc1ccccc1)c1cccc(N2CCCS2(=O)=O)c1 -13.4%
COc1ccc(-c2cn3nc(SCC(=O)Nc4ccccc4F)ccc3n2)cc1 -4.15%
COC(=O)c1scc(-c2ccc(C)cc2)c1S(=O)(=O)Nc1ccc(NC(C)=O)cc1 -13%
Cc1cc(C)c(NC(=O)COCc2cc(-c3cccs3)on2)c(C)c1 -7.48%
Cc1cccc(OCC(=O)Nc2cccc(C(=O)OCc3cc(=O)n4c(C)csc4n3)c2)c1 -3.16%
O=C(CSc1nccn1Cc1ccc(F)cc1)NCc1ccccc1 -4.14%
COc1ccc(S(=O)(=O)N(CC(=O)NCCSc2ccccc2)c2ccc(Cl)cc2)cc1 -34.8%
COc1ccc(-n2ncc(C(=O)NCc3ccc4c(c3)OCO4)c2C2CCN(C(=O)OC(C)(C)C)CC2)cc1 0.403%
CCc1cccc(N2C(=O)CSC23C(=O)N(Cc2ccccc2F)c2ccccc23)c1 (stereo unspecified) -45.1%
CCN(CC)c1ccc(NC(=O)CN2C(=O)c3cccnc3Oc3ccccc32)c(C)c1 4.17%
Cc1ccc(CCNC(=O)c2ccc3c(c2)N(Cc2cc(C)ccc2C)C(=O)c2ccccc2S3=O)cc1 (stereo unspecified) -4.76%
Cc1ccc(/C=C/c2onc(C)c2S(=O)(=O)N2CCC(C(=O)NCc3ccco3)CC2)cc1 3.19%
CCOC(=O)c1cccc(NS(=O)(=O)c2cc(Br)cc3c2N(C(=O)C2CC2)CC3)c1 -6.2%
COc1ccc2c(c1)NC(c1ccc(F)cc1)=NC(c1ccc(F)cc1)=N2 -4.36%
COc1ccc(CNC(=O)CCS(=O)(=O)c2cc(Br)cc3c2N(C(=O)C2CC2)CC3)cc1 -8.34%
